Measured values from PubChem BioAssay AID2675 (National Center for Advancing Translational Sciences (NCATS), 2010).
The whole screen tested about 280,000 compounds, of which about 100 (0.036%) were called active. This list was built around the results that the source calls inconclusive (neither active nor inactive); the mix of calls is not that of the screen. The call rests on the fitted dose curve; in most records, active means well fitted inhibition curve with a large enough effect in the signal ratio, with a control signal flat (not every such curve was filed as active); inconclusive means small, poorly fitted or top-dose-only effect, or effect the other way, or a change in a side signal; inactive means no such curve, though single readings can be large or run the other way; the % refers to the signal ratio. Potencies beside an inconclusive call are fits to weak or partial responses and may not hold up. “Side channel” marks fits to a control or component signal instead of the main read-out.

Target: Muscleblind-like protein 1 (Homo sapiens) (UniProt Q9NR56)
Experiment: qHTS Assay for Inhibitors of MBNL1-poly(CUG) RNA binding
Conditions: TR-FRET MBNL1-His/biotin-(CUG)12 binding, 665/545 ratio; activity change, negative = inhibition: at 57.5 µM (top of the series)
Procedure, shortened: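 TR-FRET readout: Ex 340 nm, 665/545 nm emission ratio, normalized to buffer-only (basal) and MBNL1-(CUG)12 controls. Complex of MBNL1-His with Biotin-(CUG)12, compounds 92 nM–58 uM, incubated 60 min at room temperature.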
On the % scale 0 is the no-effect control and ±100 the full control effect; potency means the concentration at half of the fitted maximal effect; tags describe the fitted curve by direction and shape or compound fluorescence and quenching.

Chain of UniProt Q9NR56 (Q9NR56 whole entry, looked up): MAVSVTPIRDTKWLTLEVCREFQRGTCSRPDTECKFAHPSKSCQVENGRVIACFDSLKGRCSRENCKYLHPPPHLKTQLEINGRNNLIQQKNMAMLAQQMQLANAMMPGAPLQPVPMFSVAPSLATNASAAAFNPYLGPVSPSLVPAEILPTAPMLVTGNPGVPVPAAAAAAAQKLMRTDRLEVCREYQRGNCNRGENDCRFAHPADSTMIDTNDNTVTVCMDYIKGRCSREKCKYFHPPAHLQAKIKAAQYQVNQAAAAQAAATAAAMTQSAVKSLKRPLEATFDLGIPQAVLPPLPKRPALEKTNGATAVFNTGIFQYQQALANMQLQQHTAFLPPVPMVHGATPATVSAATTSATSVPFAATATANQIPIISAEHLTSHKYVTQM

| SMILES | Potency | activity change, negative = inhibition |
| --- | --- | --- |
| CCn1cc([N+](=O)[O-])c(C(=O)Nc2ccc(Cn3nc(C)cc3C)cc2)n1 | inconclusive: 17.8 µM [quencher, side channel, partial curve] |  |
| O=C(CSc1ncnc2ccccc12)Nc1cc(S(=O)(=O)N2CCCCC2)ccc1Cl | inconclusive: 3.55 µM [quencher, side channel, full curve, poor fit] |  |
| CC(=O)Nc1ccc(S(=O)(=O)Nc2nc3ccccc3nc2-n2ccc(=NC(=O)c3ccccc3)cc2)cc1 | inconclusive: 15.8 µM [quencher, side channel, partial curve] |  |
| COc1ccccc1NC(=O)c1nc(S(=O)(=O)Cc2ccccc2)ncc1Cl |  | inactive: 3.71% |
| CCCOc1ccc(Br)cc1CSC(=N)N |  | inactive: -4.85% |
| COc1ccc(C(C)NC(=O)c2ccccc2Cl)cc1OC (centres undefined) | inconclusive: 5.01 µM [fluorescent, side channel, full curve] |  |
| O=c1[nH]nc(-c2ccccc2)c2ccccc12 |  | inactive: -4.51% |
| NC(=O)CC(NC(=O)c1cccc(Br)c1)c1ccc(NC2CCN(Cc3ccccc3)CC2)c([N+](=O)[O-])c1 (centres undefined) | inconclusive: 17.8 µM [quencher, side channel, partial curve] |  |
| COCCCNC(=O)COC(=O)c1ccc(-c2nc3ccccc3s2)s1 | inconclusive: 2.51 µM [quencher, side channel, partial curve] |  |
| O=C(NC1CCCC1)c1ccc2nc(-c3ccco3)c(-c3ccco3)nc2c1 | inconclusive: 15.8 µM [quencher, side channel, partial curve] |  |
| CC(/C=N/Nc1nnc2c(n1)[nH]c1ccccc12)=C\c1ccco1 | inconclusive: 11.2 µM [quencher, side channel, partial curve] |  |
| Cc1nc(SCC(=O)NCC(F)(F)F)c2c(-c3cccs3)csc2n1 | inconclusive: 0.355 µM [fluorescent, side channel, partial curve] |  |
| O=C(NCCCCc1ccccc1)c1cccc([N+](=O)[O-])c1 | inconclusive: 6.31 µM [quencher, side channel, full curve] |  |
| O=c1[nH]cnc2sc3c(c12)CCN(Cc1ccccc1)C3 | inconclusive: 20 µM [quencher, side channel, partial curve] |  |
| CC(=O)N1CC[n+]2c(-c3ccc([N+](=O)[O-])cc3)csc21 | inconclusive: 11.2 µM [quencher, partial curve] |  |
| CCCC(=O)N1CCN(c2ccc([N+](=O)[O-])c(NC(C)c3ccccc3)c2)CC1 (centres undefined) | inconclusive: 25.1 µM [quencher, side channel, partial curve] |  |
| O=C(N/C(=C\c1ccccc1Cl)C(=O)N1CCOCC1)c1ccc([N+](=O)[O-])cc1 | inconclusive: 15.8 µM [quencher, partial curve] |  |
| O=C(O)c1cc2ccccc2c(N=Nc2cccnc2)c1O | inconclusive: 2.82 µM [quencher, side channel, partial curve, poor fit] |  |
| CCOc1ccccc1/C=C/c1nc2ccccc2[nH]c1=O | inconclusive: 28.2 µM [quencher, side channel, single point] |  |
| COc1cc([N+](=O)[O-])ccc1NC(=O)NCC1CCN(Cc2ccc(Cl)cc2)CC1 | inconclusive: 14.1 µM [quencher, side channel, partial curve] |  |

| SMILES | Potency | activity change, negative = inhibition |
| --- | --- | --- |
| CC(C)Sc1nc2ccccc2n2cnnc12 | inconclusive: 12.6 µM [quencher, side channel, partial curve] |  |
| OCC(CO)(CO)N=Cc1c(O)ccc2ccccc12 | inconclusive: 17.8 µM [quencher, side channel, single point] |  |
| COc1ccccc1/C=C/C(=O)NCc1cccnc1 |  | inactive: 12.3% |
| Cc1cc2c(ncn2C)c(NS(=O)(=O)c2cc(Cl)ccc2Cl)c1C | inconclusive: 39.8 µM [quencher, side channel, single point] |  |
| O=C(Nn1cnnc1)C(c1ccccc1)c1ccccc1 |  | inactive: -0.155% |
| CNC(=S)Nc1cccc([N+](=O)[O-])c1 | inconclusive: 10 µM [quencher, side channel, partial curve, poor fit] |  |
| CC(=C/c1ccco1)/C=N/NC(=O)c1nnn(-c2nonc2N)c1CN(C)C | inconclusive: 35.5 µM [quencher, side channel, single point] |  |
| CC1CCN(CCCNC(=O)c2ccc(CSCc3cccc(Cl)c3)o2)CC1 |  | inactive: -10.6% |
| CCOn1c(=O)c(-c2cc3ccccc3o2)[n+]([O-])c2ccccc21 | inconclusive: 2.82 µM [quencher, side channel, full curve] |  |
| COc1ccc([N+](=O)[O-])cc1NC(C)C | inconclusive: 12.6 µM [quencher, side channel, partial curve] |  |
| Cn1cnnc1SCCNS(=O)(=O)c1cccc([N+](=O)[O-])c1 | inconclusive: 39.8 µM [quencher, single point] |  |
| CCOC(=O)N/N=C(/C)c1ccc([N+](=O)[O-])o1 | inconclusive: 12.6 µM [quencher, side channel, partial curve] |  |
| O=C1NC(=S)N/C1=C/C=C/c1ccccc1 | inconclusive: 39.8 µM [quencher, side channel, single point] |  |
| O=C(CSc1nnc2ccc(-c3cccnc3)nn12)Nc1ccc(F)cc1F | inconclusive: 28.2 µM [quencher, side channel, partial curve] |  |
| COc1ccc(CC(NC(C)=O)C(=O)NC2CCN(c3nc(C)cc(C)c3C#N)CC2)c(OC)c1 (centres undefined) |  | inactive: 18.8% |
| Nc1nnnn1CC(=O)N/N=C/c1cc([N+](=O)[O-])ccc1O | inconclusive: 14.1 µM [quencher, partial curve] |  |
| COc1ccc([N+](=O)[O-])cc1NC(=O)N(C)Cc1ccco1 | inconclusive: 11.2 µM [quencher, side channel, partial curve] |  |
| CN(CC(=O)Nc1ccc2c(c1)CCC2)CC(=O)Nc1ccccc1Br |  | inactive: 1.75% |
| Cc1cccc(NC(=O)/C(C#N)=C/c2ccccc2O)n1 | inconclusive: 12.6 µM [quencher, side channel, partial curve] |  |
| CCOc1ccc(CC(=O)NNC(=S)NC2CCCCC2)cc1OCC |  | inactive: 12.1% |

| SMILES | Potency | activity change, negative = inhibition |
| --- | --- | --- |
| CN1CCN(CCCNC(=O)c2cc3c(=O)oc4ccccc4c3s2)CC1 | inconclusive: 7.94 µM [quencher, side channel, partial curve] |  |
| CN(C)c1cc[n+](CC(=O)Nc2c(Cl)cc(Cl)cc2Cl)cc1 | inconclusive: 3.98 µM [quencher, side channel, partial curve] |  |
| COC(=O)c1[nH]c2cc(OC)ccc2c1N | inconclusive: 22.4 µM [quencher, side channel, single point] |  |
| Cc1ccc(Nc2nc3nonc3nc2N(C)C)cc1 | inconclusive: 25.1 µM [quencher, partial curve] |  |
| C/C(=N\NC(=O)c1cccs1)c1c(O)cc(C)oc1=O | inconclusive: 35.5 µM [quencher, side channel, single point] |  |
| CC1=CC(=O)C(C(C)C)=C/C1=N\OC(=O)c1cccc2nc(C)oc12 |  | inactive: 38% |
| COCCCNC(=O)Cc1c(C)c2c(cc(C)c3c(C(C)(C)C)coc32)oc1=O | inconclusive: 39.8 µM [quencher, side channel, single point] |  |
| Cc1ccsc1/C=C(\C#N)C(=O)Nc1c(C)n(C)n(-c2ccccc2)c1=O | inconclusive: 14.1 µM [quencher, side channel, partial curve] |  |
| Cc1nc2ccc(NC(=O)c3cc([N+](=O)[O-])cc([N+](=O)[O-])c3Cl)cc2s1 | inconclusive: 2.24 µM [quencher, side channel, partial curve] |  |
| CCOc1ccc2[nH]c3ncccc3c(=O)c2c1 | inconclusive: 12.6 µM [quencher, side channel, partial curve] |  |
| O=C(NNC(=O)c1ccccc1[N+](=O)[O-])c1ccc(NS(=O)(=O)c2cccs2)cc1 | inconclusive: 15.8 µM [quencher, side channel, partial curve] |  |
| CC(=O)Nc1nc(C)c(-c2csc(Nc3ccc(S(N)(=O)=O)cc3)n2)s1 | inconclusive: 31.6 µM [inhibitor, partial curve] |  |
| COCCCNC(=O)c1cc2c(=O)n3cc(C)ccc3nc2nc1NCC1CCCO1 (centres undefined) | inconclusive: 2.82 µM [quencher, side channel, full curve, poor fit] |  |
| O=C(O)c1cccc(NS(=O)(=O)c2cccc3nsnc23)c1 | inconclusive: 28.2 µM [quencher, partial curve] |  |
| CS(=O)(=O)Oc1ccc2c(c1)O/C(=C\c1cccc([N+](=O)[O-])c1)C2=O | inconclusive: 2.82 µM [quencher, side channel, full curve, poor fit] |  |
| O=C(CSc1ccc(-c2ccco2)nn1)c1ccc(F)cc1 |  | inactive: 29.3% |
| Cc1ccc(C(=O)Nc2ccc(N3CCOCC3)c3nonc23)cc1[N+](=O)[O-] | inconclusive: 17.8 µM [quencher, side channel, partial curve] |  |
| CC(C)OC(=O)c1cc(NC(=O)C2C3CCC(O3)C2C(=O)O)cc(C(=O)OC(C)C)c1 (centres undefined) | inconclusive: 10 µM [quencher, side channel, partial curve] |  |
| CN(C)CCCN1C(=O)c2oc3ccc(F)cc3c(=O)c2C1c1cccnc1 (centres undefined) | inconclusive: 25.1 µM [quencher, single point] |  |
